For 56 variants, self-cleavage results are on record in the RNAGym collection of RNA variant scans (doi:10.7554/elife.90254).

B1: LINE1-mini (parent)
chain: GGCAGAGCUCAACACAGCGUGGCAAAGUGGCUGUGGCUAGACUGCC

The source gives no read counts; variants with many changes may rest on few reads.

The variants in this data set derive from B1. The data set is described as follows: self-cleavage, relative activity (ratio to wild type); higher = more cleavage; in vitro, sequencing; the parent is a self-cleaving ribozyme.
Regarding GGCAGAGCUAAACGCAGCGUGGCCAAGUGGCUGUUGCGAAACUGCC, the self-cleavage was 0.
For the variant GGCAGAGCGCAACACAGCGUGGCAAAGUGGCAGUGUCUAGACUGCC, the self-cleavage is 0.03.
Take GGCAGAGCUAAACACAGCGUGGCCAAGUGGCUGUGGAUAGACGGCC: the self-cleavage amounted to 0.
For GGCAGAGCUAAACCCAGCGCGGCAAAUUGGCUGUGGCUAGGCUGCC, the self-cleavage turned out to be 0.02.
In the case of GGCAGAGCUAACCACUGCGUGUCAAAGUGGCUGUGGCUACACUGCC it was 0.01.
Regarding GGCAGAGCUACACACAACGAGGCAAAGUGGCUGUGGCUAGCCUGCC, the self-cleavage is 0.01.
For GGCAGAGCUAAACACAGCGUGGCAUAGUGCCUGUGGCUAGACCGCC, the self-cleavage came to 0.04.
In the case of GGCAGAGCGCAACACAGCGUGGCAAACUGGCUGUGGUUAGACUGUC, the self-cleavage came out at 0.02.
GGCAGAGCGCAACACAGCGUGGCAAAAUGCAUGUGGCUAGACUGCC: the self-cleavage is 0.05.
With GGCAGAGCGCAACACAGCGUGGCAAAGUGGCUGUGGCAAGAUGGCC the figure was 0.25.
As for GGCAGAGCUAAACGAAGUGUGGUAAAGUGGCUGUGGCUAGACUGCC, the self-cleavage came to 0.02.
GGCAGAGCUAAUCACAUCGUGGCAAAGUGGCUGUGGCCAGACUGCC: the self-cleavage amounted to 0.
On to GGCAGAGCUAAUCAAAGUGUGGCAAAGUGGCUGUGUCUAGACUGCC, for which the self-cleavage amounted to 0.03.
With GGCAGAGCUAAUCACAGCGUGGCAAAGUGGCUGUAGCUAGACUGCC the figure was 0.03; with GGCAGAGCUACACACAGCGUGGCAAAGUGGCUGUGGUUAGACUGCC, 0.01.
With GGCAGAGCUAAACUCAGCGUGGCAAAGUGGCUGUGGCUAGACUGAC, the self-cleavage was found to be 0.05.
For the variant GGCAGAGCUAAACACCGCGUGGCAAUGUGGCUGUGGCUAGACUGCC, the self-cleavage amounted to 0.02.
As for GGCAGAGCUAAACACAGCGUGGCAAAGUGGCUGUGGCUAGUCUGUC, the self-cleavage was 0.02.
As to GGCAGAGCUACACACAGCGUGGCAAAGUGGCUGUGGAUUGACUGCC, the self-cleavage came to 0.
Turning to GGCAGAGCUACACACAGCGUGGCAAAGGGGCUGUGCCUAGACUGCC, the self-cleavage turned out to be 0.
As to GGCAGAGCUAAACUCAGCGUUGCAAAGUGGCUGUGGCUAUACUGCC, the self-cleavage was determined as 0.02.
Consider GGCAGAGCUAUUCACAGCCUGGCAAGAUGUCUGUGGCUAGACUGCC, for which the self-cleavage was 0.02.
In the case of GGCAGAGCGCAACACAGCGUGACAAAAUGGCUGUGGCUAGACUGCC it was 0.14; in that of GGCAGAGCUAAUCACAGCGUUGCAAAGUGGCUGUGGCUAGACUGCC, 0.02.
Take GGCAGAGCUACACACAGCAUGGCAAAGUGGCUGUGGCUAGACUGGC: the self-cleavage turned out to be 0.02.
On to GGCAGAGCGCAACACAGCGUGUCAAAGUGGUUGCGGCUAGACUGCC, for which the self-cleavage was determined as 0.02.
Take GGCAGAGCGCAACACAGCGUGGCAAAGUCGCUGUGGCUAUACUGCC: the self-cleavage amounted to 0.04.
On to GGCAGAGCUAGGUACAGCGUGGCAAAGACGCUGUGGGAAGACUGCC, for which the self-cleavage was determined as 0.01.
As to GGCAGAGCGCAACACAGCGUGGCAAAGUGGCUGUGUCUUGACUGCC, the self-cleavage stood at 0.18.
Take GGCAGAGCUAAACGCAGCGUGGCGAAGUGGCUGUGGUUAAACUGCC: the self-cleavage came to 0.02.
In the case of GGCAGAGCUAACCACAGCGUGGCAAAGUGGAUGUGGCUAGACUGCG it was 0.
For the variant GGCAGAGCUAAGCACAGCGUGGCAAAGUGGCUGUGGCUUGACUGCC, the self-cleavage turned out to be 0.02.
In the case of GGCAGAGCUAGACACAGCGUGGCAAAGUGGCUGUGACUAGACUGCC it was 0.03.
For GGCAGAGCUAAACACAGCGUGGCAACGUGGCGGUGGCUAGACUGCC, the self-cleavage was 0.02.
In the case of GGCAGAGCUAAACUCAGAGUGGCAAAGCGCCUGAGGCUAGACUGCC it was 0.02; in that of GGCAGAGCUAACUACAGCGUGGCAAAGUGGCUGUGGCUAUACUGCC, 0.01; in that of GGCAGAGCUACACAGACCGUGGCAAAGUGACUGUGGCAAGACUGCC, 0.01.
In the case of GGCAGAGCUAAACACAGCGUGGCAUAGUGGCUGUGGCUAGUCUUCG it was 0.01; in that of GGCAGAGCUAAACACAGCGUGGCAAAGUGGCUGUGGCUGGACUGAC, 0.01.
For the variant GGCAGAGCUAAACUCAGCGUGCCAAAGUGUCUGUGGCUAGACUGCC, the self-cleavage is 0.01.
With GGCAGAGCGCAACACAGCGUCGCAAAGUGGCUGUAGCUAGAAUACC, the self-cleavage was found to be 0.06.
Take GGCAGAGCGCAACACAGCGUGACGAGGUGGCUGUAGCGAGACUGCC: the self-cleavage came out at 0.01.
Take GGCAGAGCUAACCACAGCGUCCCAAAGUGGCUGUGGCUAGACUGCC: the self-cleavage was 0.01.
As for GGCAGAGCUAACCCCAGCGUGGCAAUGUGGCUGUGGCUAGACUGCU, the self-cleavage amounted to 0.03.
Turning to GGCAGAGCGCAACACAGCGUGGCAAACUGGUUGUGGCUAGAGUGCC, the self-cleavage amounted to 0.05.
For GGCAGAGCUAGACAGAGCGUGGAAAAGUGGCUGUGGCAAGACUGCC, the self-cleavage is 0.02.
In the case of GGCAGAGCUAAACACAGCGUGGCAACGUGGCGGUGGCUUGAAUGCC it was 0.02; in that of GGCAGAGCUAACUACUGCGUGGCAAAGUGGGUGUGGCUAGCCUGCC, 0.01; in that of GGCAGAGCUAAACACAGCGUGGCAAAGUGGCUGUGGCUAGUGUGCC, 0.
With GGCAGAGCUAAACACAGCGUGGCAACGUGGCUGUGGAUAGCCUGCC the figure was 0.01.
With GGCAGAGCUACACACAGCGUGGCAAAUUGGCUGUGGCUAGACUGCC, the self-cleavage came out at 0.01.
On to GGCAGAGCUACACACAUCGUGGCAAAGUGGCAGCUGCUAGACUGCC, for which the self-cleavage is 0.01.
In the case of GGCAGAGCUAAACACAGCGUGGCAUCGUGGCUGUGGCUAGACUGCC it was 0.11; in that of GGCAGAGCUAAACACAGCGUGGCAACGUGGCUGUGUCUAGACUGAC, 0.
Turning to GGCAGAGCUAAACCCAGCGUGGCAAAGUGGCUGUGGCUAGAAGGCC, the self-cleavage stood at 0.01.
For GGCAGAGCUAAACACAGCGUGGCAAAGUGGCUGUGGCUUGUCUGCC, the self-cleavage was determined as 0.04.
